Measurements from the supplement of paper PMC3334620.
In all, about 33,000 sequences were measured (“E-score (-0.5 to 0.5)”: median about -0.032, highest 2% from about 0.36 on). Some of the results follow.

Biological target: T1, Sko1 (UniProt Q02100)
T1 sequence: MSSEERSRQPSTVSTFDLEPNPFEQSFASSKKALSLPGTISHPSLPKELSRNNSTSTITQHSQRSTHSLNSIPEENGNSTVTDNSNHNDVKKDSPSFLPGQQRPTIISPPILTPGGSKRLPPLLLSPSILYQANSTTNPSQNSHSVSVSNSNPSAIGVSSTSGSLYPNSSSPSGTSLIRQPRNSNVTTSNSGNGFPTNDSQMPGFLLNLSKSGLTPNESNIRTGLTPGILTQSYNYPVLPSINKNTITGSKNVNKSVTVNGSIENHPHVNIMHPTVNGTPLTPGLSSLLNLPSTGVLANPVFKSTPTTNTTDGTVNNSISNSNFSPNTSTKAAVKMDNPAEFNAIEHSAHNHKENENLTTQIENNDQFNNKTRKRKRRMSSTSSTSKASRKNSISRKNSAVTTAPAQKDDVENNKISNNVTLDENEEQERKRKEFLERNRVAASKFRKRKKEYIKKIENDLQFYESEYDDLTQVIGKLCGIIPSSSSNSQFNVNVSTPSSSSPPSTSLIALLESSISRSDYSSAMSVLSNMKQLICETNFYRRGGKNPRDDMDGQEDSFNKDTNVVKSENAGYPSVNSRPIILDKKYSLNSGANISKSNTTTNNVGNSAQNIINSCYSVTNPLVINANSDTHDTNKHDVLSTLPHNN
Experiment: PBM E-score (8-mer binding enrichment) (E-score (-0.5 to 0.5)); higher = stronger / more preferred TF binding; most listed sequences are background and not binding sites
Details: protein concentration: 200 nM; construct: GST-full length
Method in brief: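 PURExpress in vitro transcription/translation supplied GST-tagged yeast transcription factors, either full-length or DNA-binding domain. Applied at about 100-200 nM to universal all-10-mer Agilent arrays double-stranded by primer extension, the bound protein was detected with fluorescent anti-GST. E-scores, modified Wilcoxon-Mann-Whitney statistics, were given by the Universal PBM Analysis Suite to ungapped eight-base words pooled with their reverse complements after masliner normalisation.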

Sequence	PBM E-score
ATGACTGC	-0.0291
ACTATGTA	0.222
ATGACTTG	-0.137
CCCCAAGC	-0.0961
CGGCCGAG	-0.237
TCAATAGA	0.157
ACAACGCC	0.0338
GAGAATGC	-0.0809
CCTAGGGA	-0.115
CACAATTC	0.104
GAGCGCCC	-0.287
TACATAAA	0.308
AGCGAGTC	-0.198
AGTGCAAG	0.013
ATGGCCTC	-0.185
AACCGAGC	-0.133
GTACGGTA	0.207
GGCAGGAA	-0.244
ATCCGAAA	-0.0446
ACCAAGAC	0.074
GTAGGGAC	-0.0404
ACTGGTGC	-0.119
GAGGCGGC	-0.215
TAGCCTAA	0.0119
CATATGAG	-0.0409

Sequence	PBM E-score
AGCTATAT	0.172
CGCTGAAA	-0.161
CCCTTCCC	-0.168
GCCTCCTA	-0.3
TCAATTCA	0.00979
GGGCGAGA	-0.163
CTCTTCGA	-0.115
CCGCGAGG	-0.233
AGTCTCCC	-0.274
AGCGGACG	-0.13
AAAAAACC	-0.0245
TGGGACCA	-0.078
AGAGCCAA	-0.0594
GCTGGACA	-0.12
CTCCATAA	-0.0183
CTAAGACC	-0.0578
AAGTGCCG	-0.126
GCGTGCAA	-0.11
CAGGAAGC	0.00845
AGATGTCC	-0.0513
AAAACCGG	-0.128
AGTGCCAC	-0.223
AAGCTGGG	-0.202
GAGTAAAA	0.119
ACTAAATG	0.0819

Sequence	PBM E-score
AAAAGTAC	0.169
GGTTAGTA	-0.0678
ACTAGTTC	0.0084
ACCCCTTG	-0.323
ATGTTACA	0.0856
CCAGATTA	0.129
ATATACAG	0.0597
CAGCTTGC	0.0991
GCGAACGC	-0.0847
TAAGTTCA	0.0318
CACTGTTC	-0.0457
CTAGCAGC	-0.0931
GCATCGTA	0.0886
AGTTCGGG	0.049
GCAGTCTA	-0.207
GCAGCTAA	0.0158
GAAATTAC	0.323
CGCAGTAA	0.129
ATCTGCAG	0.0224
CGCGACCG	-0.0458
GAGAGCGC	-0.22
TCGACTCA	-0.0476
CAAGCCGG	0.015
ACGCCTAT	-0.0299
AAGCTTTC	0.0125

Sequence	PBM E-score
ATTTCCTA	0.0111
TCAGCAAA	0.206
ATCCGTCA	0.177
AAGTTTCT	0.168
ACGGGCGG	-0.434
AGCATCGG	-0.181
GGTTTCCA	-0.185
CGTTAGCA	0.107
GACGAAAA	0.354
AGCCGGCT	-0.0401
AGGATCTG	-0.212
CTTAGCCC	-0.19
AGTTAGTA	0.123
ACTGCTAC	0.108
GTTGTTAA	0.212
GCTATAAA	0.0591
CTTAGCAC	0.0362
CCTGAATC	0.0305
TATGGAGA	-0.057
ACGTACCG	0.372
CGTTCGTA	0.306
GAATGATC	-0.0198
AGGTACCT	-0.19
CGTAAGAG	0.376
GCTAAGAA	-0.0558

Sequence	PBM E-score
ACCATACA	-0.0789
AACCTACG	0.253
CAATATGG	-0.0926
CTCGACAA	0.0579
GTTTTGGA	-0.00988
ACCCGTGG	-0.34
ATCGATAA	0.145
ATCCTTAC	0.174
ATAGATGA	0.108
CAGAGCCA	-0.101
CGGGCAAA	-0.115
AGGCTTTA	0.0221
ACACGGAA	0.0164
GTGAGCCA	-0.0673
ATAAATAA	0.31
CAATGGAA	0.0512
ATAAGTAA	0.179
CCTCTTCA	-0.255
CCGTGAAA	0.0717
CTTTACTA	0.088
CGGGATCC	-0.0633
ACGGTTTG	-0.104
AACTTGCA	0.0361
GCCCCTGA	-0.18
AGCGTGGG	-0.301

Sequence	PBM E-score
AATTAGCC	-0.00886
AGATTATG	0.145
ACATCATA	0.425
CCATCCCC	-0.148
CACATGCG	0.15
CTCTTAGA	-0.157
TCGTCACA	0.379
AGAAAAAC	0.0791
ATTACGAG	0.36
CCGGTCCC	-0.461
GTAACGAC	0.0668
TACCAAAA	0.0737
CATTCTTC	0.0192
AGATACGA	0.208
ATGGGCTG	-0.174
CACTAGCA	-0.158
TCGGCCAA	-0.108
CGAATGGC	-0.0402
CAGGGACG	-0.0243
AGTGGCGG	-0.126
CGAACCGA	0.0415
TAGCTCCA	-0.0202
TCGTGCCA	-0.0756
CAGCCCAA	-0.0808
CCCACTGC	-0.115

Sequence	PBM E-score
GGCCACGA	-0.274
CCACTTTC	0.0359
AATCACCA	0.118
ACAGGCCC	-0.371
AACTAAAT	-0.0609
GTGGAGGA	-0.156
CTGACTGC	-0.03
CTCAGTCA	-0.121
AGCTGGTA	-0.226
GGAAATTA	0.187
GACACGCC	0.0381
TACTCAGA	0.11
ATTAGAGC	0.164
ACATCGAT	0.0796
ACTAAGGA	-0.138
CGGATAGC	-0.164
TCGCCCGA	-0.231
GATTTGAA	0.0915
CCGTCAAA	-0.072
ACAGTCTG	-0.171
GAGAGCCC	-0.278
GAGCCAGA	-0.0787
